Data published in PubChem BioAssay (Tox21).
Several values for one entry are separate records, joined by “and”; a condition that tells them apart may be missing. Equal values may be shown once. The inconclusive results got no clear call from the source; some entries with a clear call stand among them for comparison. For some assays here: Potencies beside an inconclusive call are fits to weak or partial responses and may not hold up. Some compounds were tested as several samples or in several runs, with calls that do not always agree. Activity calls are given as the source filed them. Unless noted, the call rests on the fitted dose curve; in most records, active means well fitted curve in the direction sought with a large enough effect in the repeat runs; inconclusive means weak or mixed curves; inactive means no such curve, though single readings can be large; an effect the other way counts as inactive or inconclusive.

Legend:
[1] = biological target: Peroxisome proliferator-activated receptor gamma (Homo sapiens) (UniProt P37231); assay: qHTS assay to identify small molecule antagonists of the peroxisome proliferator-activated receptor gamma (PPARg) signaling pathway (AID 743191; calls by dose curve; further: potency means the concentration at half of the fitted maximal effect; nearly all actives have a fitted effect of over 30% in size); settings: HEK293H PPARg-UAS-bla, beta-lactamase ratio, antagonist, 17 h; ratio activity, negative = inhibition: at 62.6 µM (top of the series) unless noted
UniProt P37231, sequence (P37231 whole entry, looked up): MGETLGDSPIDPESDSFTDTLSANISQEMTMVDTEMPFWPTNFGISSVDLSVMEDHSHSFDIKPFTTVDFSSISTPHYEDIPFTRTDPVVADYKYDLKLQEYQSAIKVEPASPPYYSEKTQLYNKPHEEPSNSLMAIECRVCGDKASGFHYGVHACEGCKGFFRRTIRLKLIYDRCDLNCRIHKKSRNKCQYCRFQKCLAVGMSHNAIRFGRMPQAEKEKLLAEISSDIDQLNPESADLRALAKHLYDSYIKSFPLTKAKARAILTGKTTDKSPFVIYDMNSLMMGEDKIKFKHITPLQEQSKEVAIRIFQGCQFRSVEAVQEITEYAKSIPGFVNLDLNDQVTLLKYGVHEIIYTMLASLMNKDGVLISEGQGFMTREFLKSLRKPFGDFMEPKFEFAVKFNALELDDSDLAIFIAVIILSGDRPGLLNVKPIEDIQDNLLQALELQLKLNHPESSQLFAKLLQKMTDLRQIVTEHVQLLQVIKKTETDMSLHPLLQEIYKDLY
Procedure, shortened: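 GeneBLAzer PPARg UAS-bla HEK293H cells carrying a UAS-driven beta-lactamase reporter were plated at 3000 cells/well, preincubated 5 h at 37C, then given compound for 17 h at 37C; LiveBLAzer B/G FRET substrate was read after 1 h at room temperature.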

[2] = qHTS assay for small molecule agonists of the antioxidant response element (ARE) signaling pathway (AID 743202; active means well fitted activation curve with a large enough effect in the signal ratio in the repeat runs, not every such curve was filed as active; inconclusive means weak or mixed curves, or effect the other way; inactive means no such curve, though single readings can be large or run the other way; the % refers to the signal ratio; further: potency means the concentration at half of the fitted maximal effect; on activation: on the % scale 0 is the no-effect control and ±100 the full control effect); settings: HepG2 ARE-bla reporter, beta-lactamase FRET, 16 h; activation: at 73.3 µM (top of the series) unless noted
Procedure, shortened: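 Compounds delivered in DMSO to ARE-bla HepG2 cells (2,000 cells/well, pre-incubated 5 h) and left 16 h at 37 C. LiveBLAzer B/G FRET substrate then added for 2 h at RT before fluorescence reading.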

[3] = qHTS assay for small molecule agonists of the antioxidant response element (ARE) signaling pathway - cell viability counter screen (AID 743203; calls by dose curve; further: potency means the concentration at half of the fitted maximal effect; nearly all actives have a fitted effect of over 55% in size)
Procedure, shortened: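 ARE-bla HepG2 cells were plated, rested 5 h at 37C/5% CO2, then exposed to compounds in DMSO for 16 h. Viability was read as CellTiter-Glo luminescence after 30 min at room temperature, in the same wells as the ARE screen.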

[4] = qHTS assay for small molecule activators of the heat shock response signaling pathway - cell viability counter screen (AID 743209); settings: HSE-bla HeLa viability, CellTiter-Glo luminescence, 5 h; activity change, negative = cytotoxicity: at 62.6 µM (top of the series) unless noted; further: potency means the concentration at half of the fitted maximal effect; nearly all actives have a fitted effect of over 50% in size
Procedure, shortened: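 HSE-bla HeLa cells plated overnight, then exposed to Tox21 compounds (23 nL in DMSO) for 5 h at 37 C. After the bla reporter read, CellTiter-Glo was added in the same wells and luminescence read after 30 min at room temperature.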

[5] = qHTS assay to identify small molecule antagonists of the peroxisome proliferator-activated receptor delta (PPARd) signaling pathway - cell viability counter screen (AID 743213); settings: PPARd-bla HEK293H viability, CellTiter-Glo luminescence, 17 h; viability change, negative = cytotoxic: at 62 µM (top of the series) unless noted; further: potency means the concentration at half of the fitted maximal effect; nearly all actives have a fitted effect of over 50% in size
Procedure, shortened: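 Cytotoxicity counter screen: CellTiter-Glo luminescence read 30 min after addition, in the same wells as the reporter assay. There, PPARd UAS-bla HEK293H cells (3000/well) were treated 17 h at 37 C with compound and 300 nM L165041.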

[6] = qHTS assay to identify small molecule agonists of the farnesoid-X-receptor (FXR) signaling pathway - cell viability counter screen (AID 743218); settings: FXR-bla HEK293T viability, CellTiter-Glo luminescence, 16 h; viability change, negative = cytotoxic: at 62.6 µM (top of the series) unless noted; further: potency means the concentration at half of the fitted maximal effect; nearly all actives have a fitted effect of over 45% in size
Procedure, shortened: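 FXR-UAS-bla HEK 293T cells exposed to compounds for 16 h at 37C. Cytotoxicity read in the same wells by CellTiter-Glo luminescence after 30 min at room temperature, following the beta-lactamase FRET read.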

[7] = biological target: Vitamin D3 receptor (Homo sapiens) (UniProt P11473); assay: qHTS assay to identify small molecule antagonists of the vitamin D receptor (VDR) signaling pathway (AID 743223; active means well fitted inhibition curve with a large enough effect in the signal ratio in the repeat runs, not every such curve was filed as active; inconclusive means weak or mixed curves, or effect the other way; inactive means no such curve, though single readings can be large or run the other way; the % refers to the signal ratio; further: potency means the concentration at half of the fitted maximal effect; on activity change, negative = inhibition: on the % scale 0 is the no-effect control and ±100 the full control effect); settings: VDR-UAS-bla HEK293T, beta-lactamase FRET ratio, 16 h; activity change, negative = inhibition: at 61 µM (top of the series) unless noted
UniProt P11473, sequence (P11473 whole entry, looked up): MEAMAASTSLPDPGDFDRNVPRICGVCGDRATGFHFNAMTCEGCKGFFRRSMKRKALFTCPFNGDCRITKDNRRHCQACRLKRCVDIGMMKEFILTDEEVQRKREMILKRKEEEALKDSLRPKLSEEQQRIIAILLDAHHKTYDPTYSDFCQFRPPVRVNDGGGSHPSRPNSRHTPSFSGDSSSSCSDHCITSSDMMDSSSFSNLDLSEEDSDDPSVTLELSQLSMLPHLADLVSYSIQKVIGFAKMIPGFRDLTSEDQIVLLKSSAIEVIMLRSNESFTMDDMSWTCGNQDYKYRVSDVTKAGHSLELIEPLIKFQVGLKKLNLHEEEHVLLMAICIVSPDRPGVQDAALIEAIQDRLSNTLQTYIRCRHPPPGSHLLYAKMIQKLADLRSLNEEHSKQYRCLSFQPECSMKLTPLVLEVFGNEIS
Procedure, shortened: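 Antagonist mode: compound added to VDR-bla cells alongside agonist 1alpha,25-dihydroxyvitamin D3 (3 nM final), incubation 16 h at 37C. Read-out is LiveBLAzer FRET fluorescence, 2 h at room temperature.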

[8] = qHTS assay to identify small molecule agonists of the vitamin D receptor (VDR) signaling pathway - cell viability counter screen (AID 743224); further: potency means the concentration at half of the fitted maximal effect; nearly all actives have a fitted effect of over 50% in size
Procedure, shortened: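 VDR-bla cells, 4 h after plating, exposed to compounds for 16 h at 37C; viability then read in the same wells as CellTiter-Glo luminescence after 30 min at room temperature, following the bla FRET read.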

[9] = qHTS assay to identify small molecule antagonists of the vitamin D receptor (VDR) signaling pathway - cell viability counter screen (AID 743225); settings: VDR-bla HEK293T viability, CellTiter-Glo luminescence, 16 h; viability change, negative = cytotoxic: at 61 µM (top of the series) unless noted; further: potency means the concentration at half of the fitted maximal effect; nearly all actives have a fitted effect of over 50% in size
Procedure, shortened: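 Cytotoxicity counter screen read by CellTiter-Glo luminescence (30 min, room temperature) in the same wells as the VDR-bla antagonist readout. HEK 293T VDR-UAS-bla cells had 16 h at 37C with compound and 3 nM (final) 1-alpha,25-dihydroxyvitamin D3, then 2 h with FRET substrate.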

[10] = qHTS assay to identify small molecule agonists of the NFkB signaling pathway - cell viability counter screen (AID 1159515; calls by dose curve; further: potency means the concentration at half of the fitted maximal effect; nearly all actives have a fitted effect of over 55% in size)
Procedure, shortened: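 NFkB-bla ME-180 cells, 2,000/well, plated overnight at 37 C; compound added for 5 hr at 37 C. Viability read in the same wells as the bla reporter, by CellTiter-Glo luminescence after 30 min at room temperature.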

[11] = qHTS assay to identify small molecule agonists of the endoplasmic reticulum stress response signaling pathway (AID 1159516; active means well fitted activation curve with a large enough effect in the signal ratio in the repeat runs, not every such curve was filed as active; inconclusive means weak or mixed curves, or effect the other way; the % refers to the signal ratio; further: potency means the concentration at half of the fitted maximal effect; on activation: on the % scale 0 is the no-effect control and ±100 the full control effect); settings: ESRE-bla HeLa, ER stress beta-lactamase reporter, 5 h; activation: at 61 µM (top of the series) unless noted
Procedure, shortened: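 CellSensor ESRE-bla HeLa cells, 1,500 per well, plated overnight, then exposed to compounds for 5 hr at 37 C. Beta-lactamase reporter read with LiveBLAzer B/G FRET substrate after 2 hr at room temperature, 405 nm excitation, 460 and 530 nm emission.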

[12] = biological target: Peroxisome proliferator-activated receptor delta (Homo sapiens) (UniProt Q03181); assay: qHTS assay to identify small molecule agonists of the peroxisome proliferator-activated receptor delta (PPARd) signaling pathway (AID 743212; calls by dose curve; further: potency means the concentration at half of the fitted maximal effect); settings: HEK293H PPARd-UAS-bla, beta-lactamase FRET ratio, 17 h; activation: at 62.6 µM (top of the series) unless noted
UniProt Q03181, sequence (Q03181 whole entry, looked up): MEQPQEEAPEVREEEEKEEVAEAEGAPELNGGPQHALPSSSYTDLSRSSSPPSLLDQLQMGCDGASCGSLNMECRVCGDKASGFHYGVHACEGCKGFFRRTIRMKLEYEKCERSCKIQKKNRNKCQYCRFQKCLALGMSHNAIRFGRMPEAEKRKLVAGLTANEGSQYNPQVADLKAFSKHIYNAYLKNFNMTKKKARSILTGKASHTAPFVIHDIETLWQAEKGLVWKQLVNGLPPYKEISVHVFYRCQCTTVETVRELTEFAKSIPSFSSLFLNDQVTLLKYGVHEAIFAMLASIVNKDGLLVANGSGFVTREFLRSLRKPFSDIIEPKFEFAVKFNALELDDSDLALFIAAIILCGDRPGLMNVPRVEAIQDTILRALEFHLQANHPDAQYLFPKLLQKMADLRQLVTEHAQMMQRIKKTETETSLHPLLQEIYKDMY
Procedure, shortened: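 A PPARd-bla HEK293H line with beta-lactamase under an Upstream Activator Sequence is treated with compounds at 37 C. Substrate loading for 2 h at room temperature precedes the fluorescence measurement.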

[13] = biological target: Peroxisome proliferator-activated receptor delta (Homo sapiens) (UniProt Q03181); assay: qHTS assay to identify small molecule antagonists of the peroxisome proliferator-activated receptor delta (PPARd) signaling pathway (AID 743215; active means well fitted inhibition curve with a large enough effect in the signal ratio in the repeat runs, not every such curve was filed as active; inconclusive means weak or mixed curves, or effect the other way; inactive means no such curve, though single readings can be large or run the other way; the % refers to the signal ratio;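 further: cells stimulated with agonist L165041 at 300 nM final during compound exposure; potency means the concentration at half of the fitted maximal effect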); settings: HEK293H PPARd-UAS-bla, beta-lactamase FRET ratio, antagonist, 17 h; ratio activity, negative = inhibition: at 62 µM (top of the series) unless noted
Procedure, shortened: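 PPARd-bla HEK293H cells (UAS-bla reporter) preincubated 5 h, then given compound plus 300 nM final L165041 agonist for 17 h at 37 C. Beta-lactamase activity read by LiveBLAzer B/G FRET substrate fluorescence after 2 h at room temperature.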

[14] = biological target: Bile acid receptor (Homo sapiens) (UniProt Q96RI1); assay: qHTS assay to identify small molecule antagonists of the farnesoid-X-receptor (FXR) signaling pathway (AID 743217; active means well fitted inhibition curve with a large enough effect in the signal ratio in the repeat runs, not every such curve was filed as active; inconclusive means weak or mixed curves, or effect the other way; inactive means no such curve, though single readings can be large or run the other way; the % refers to the signal ratio; further: potency means the concentration at half of the fitted maximal effect); settings: HEK293T FXR-UAS-bla, beta-lactamase ratio, CDCA-stimulated, 16 h; activity change, negative = inhibition: at 62.6 µM (top of the series) unless noted
UniProt Q96RI1, sequence (Q96RI1 whole entry, looked up): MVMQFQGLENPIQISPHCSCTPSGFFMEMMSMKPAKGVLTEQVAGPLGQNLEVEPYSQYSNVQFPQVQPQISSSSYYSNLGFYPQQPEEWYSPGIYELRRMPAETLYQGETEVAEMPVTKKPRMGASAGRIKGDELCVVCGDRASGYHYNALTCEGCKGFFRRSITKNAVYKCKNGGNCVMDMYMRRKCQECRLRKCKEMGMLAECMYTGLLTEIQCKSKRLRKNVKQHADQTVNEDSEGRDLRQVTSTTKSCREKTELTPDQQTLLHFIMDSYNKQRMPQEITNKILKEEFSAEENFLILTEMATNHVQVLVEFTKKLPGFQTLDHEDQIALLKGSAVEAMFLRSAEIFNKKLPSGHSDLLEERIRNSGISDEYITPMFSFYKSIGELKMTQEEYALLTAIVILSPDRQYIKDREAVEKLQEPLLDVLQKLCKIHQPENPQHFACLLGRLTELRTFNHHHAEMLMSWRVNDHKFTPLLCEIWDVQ
Procedure, shortened: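 FXR-UAS-bla HEK 293T cells (beta-lactamase reporter) given compound plus chenodeoxycholic acid (50 uM final), 16 h at 37C. LiveBLAzer B/G FRET substrate added for 2 h at room temperature; fluorescence read.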

[15] = qHTS assay to identify small molecule antagonists of the farnesoid-X-receptor (FXR) signaling pathway - cell viability counter screen (AID 743221; active means well fitted cell-killing curve with a large enough effect in the repeat runs, not every such curve was filed as active; inconclusive means weak or mixed curves, or effect the other way; inactive means no such curve, though single readings can be large or run the other way); settings: FXR-bla HEK293T viability, CellTiter-Glo luminescence, 16 h; activity change, negative = cytotoxicity: at 62.6 µM (top of the series) unless noted
Procedure, shortened: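 Cytotoxicity counter screen run in the FXR-bla reporter wells: HEK 293T cells exposed to compound with 50 uM (final) chenodeoxycholic acid for 16 h, 37 C, then viability measured by CellTiter-Glo luminescence after 30 min, room temperature.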

[16] = qHTS assay to identify small molecule antagonists of the peroxisome proliferator-activated receptor gamma (PPARg) signaling pathway - cell viability counter screen (AID 743194); settings: PPARg-bla HEK293H viability, CellTiter-Glo luminescence, 17 h; Potency: co-treated with 50 nM rosiglitazone unless noted; activity change, negative = cytotoxicity: at 62.6 µM (top of the series), co-treated with 50 nM rosiglitazone unless noted; further: potency means the concentration at half of the fitted maximal effect; nearly all actives have a fitted effect of over 55% in size
Procedure, shortened: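 PPARg-UAS-bla HEK293H cells were plated, rested 5 h at 37 C, then treated with compounds plus rosiglitazone (50 nM final) for 17 h at 37 C; viability was then read by CellTiter-Glo luminescence after 30 min at room temperature.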

[17] = biological target: Vitamin D3 receptor (Homo sapiens) (UniProt P11473); assay: qHTS assay to identify small molecule agonists of the vitamin D receptor (VDR) signaling pathway (AID 743222; calls by dose curve; further: on the % scale 0 is the no-effect control and ±100 the full control effect); settings: HEK293T VDR-UAS-bla, beta-lactamase FRET ratio, 16 h; activation: at 63.5 µM (top of the series) unless noted
Procedure, shortened: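 VDR-bla cells plated 4 h at 37 C, then exposed to compounds for 16 h at 37 C. Beta-lactamase reporter activity measured by fluorescence after 2 h room-temperature loading with LiveBLAzer B/G FRET substrate.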
Tags describe the fitted curve by direction and shape or compound fluorescence and quenching.

With `Cc1ccc(N=CN(C)C=Nc2ccc(C)cc2C)c(C)c1` as the molecule, how does the Potency [1] read?
The Potency was inconclusive: 55.2 µM [activator] and inconclusive: 11 µM [fluorescent, partial curve, poor fit].

What about the activation [2] of the same molecule?
The activation was inconclusive: 27.4%.

What about the Potency [3] of the same molecule?
Its Potency is inconclusive: 61.4 µM [cytotoxic, single point] and inconclusive: 68.5 µM [cytotoxic, single point].

And the Potency [4]?
The Potency was inconclusive: 61.9 µM [cytotoxic, single point] and inconclusive: 54.9 µM [cytotoxic].

And the Potency [5]?
The Potency was inconclusive: 39.1 µM [cytotoxic] and active: 24.5 µM and inconclusive: 3.35 µM [cytotoxic, single point].

What about the Potency [6] of the same molecule?
Its Potency is inconclusive: 55.2 µM [cytotoxic, single point] and inconclusive: 38.9 µM [cytotoxic, partial curve, poor fit].

What about the activity change, negative = inhibition [7] of the same molecule?
Its activity change, negative = inhibition is inconclusive: 0.341%.

What about the Potency [8] of the same molecule?
The Potency was inconclusive: 33500 nM [rising, single point].

And the Potency [9]?
The Potency was inconclusive: 43800 nM [cytotoxic, partial curve].

And the Potency [10]?
Its Potency is inconclusive: 55.2 µM [cytotoxic] and active: 54.9 µM.

What about the activation [11] of the same molecule?
The activation was inconclusive: -3.53%.

For `Nc1ccc(Sc2ccc(N)cc2)cc1`, which Potency [1] is on record?
Its Potency is inconclusive: 13.8 nM [inhibitor, full curve].

What about the Potency [2] of the same molecule?
The Potency was inconclusive: 24300 nM.

And the Potency [3]?
Its Potency is inconclusive: 21.7 µM [rising, partial curve, poor fit].

What about the Potency [12] of the same molecule?
The Potency was inconclusive: 6110 nM.

And the Potency [5]?
The Potency was inconclusive: 977 nM [cytotoxic, full curve, poor fit].

What about the Potency [13] of the same molecule?
The Potency was inconclusive: 61100 nM [activator, partial curve, poor fit].

And the Potency [14]?
Its Potency is inconclusive: 34400 nM [activator, partial curve, poor fit].

And the Potency [6]?
Its Potency is inconclusive: 2.45 µM [rising, full curve, poor fit].

What about the Potency [15] of the same molecule?
The Potency was inconclusive: 21900 nM [falling, single point].

And the Potency [7]?
The Potency was inconclusive: 30900 nM [activator, partial curve, poor fit].

What about the Potency [9] of the same molecule?
Its Potency is inconclusive: 776 nM [rising, full curve, poor fit].

What about the Potency [10] of the same molecule?
The Potency was inconclusive: 54.9 µM [cytotoxic, partial curve, poor fit].

And the activation [11]?
The activation was inconclusive: 13.9%.

What does the source list for `COc1cccc2c1C(=O)c1c(O)c3c(c(O)c1C2=O)C[C@@](O)(C(=O)CO)CC3OC1CC(N2CCOC(OC)C2)C(O)C(C)O1` (stereo not given in full)?
Potency [1]: inconclusive: 106 nM [rising, partial curve]; Potency [16]: inconclusive: 298 nM [cytotoxic, single point]; Potency [2]: inconclusive: 376 nM [rising, full curve]; Potency [3]: active: 9.44 µM; Potency [4]: inconclusive: 596 nM [cytotoxic, full curve]; Potency [13]: inconclusive: 211 nM; activation [17]: inconclusive: -22%; Potency [7]: inconclusive: 75.6 nM [rising, full curve]; Potency [9]: inconclusive: 239 nM [cytotoxic, single point]; Potency [10]: inconclusive: 0.535 µM [rising, full curve]; Potency [11]: inconclusive: 535 nM
